Only a part is listed here, and it is no random draw. The list includes weakly bound sequences.
Legend:
Test in all cases: protein-binding microarray (PBM)
Conditions in all cases: PBM: ~300 nM protein, 6 mM HEPES pH 7.8, 80 mM KCl, 0.5 mM EDTA, 0.5 mM EGTA, 6% glycerol, 35 ng/ul poly-dIdC, 1% milk, 1 h, room temperature; Ap Aiptasia and Nv Nematostella (sea anemones) / Co Capsaspora / Aq Amphimedon (sponge) / Dm Drosophila / Hu human; RHD is the Rel homology domain; high values mean tight binding; most listed sequences are background and not binding sites; double strand, one strand shown
[1] = molecular target: T1, GST-Ap-NF-kB RHD (UniProt A0A913YAJ5)
T1 sequence: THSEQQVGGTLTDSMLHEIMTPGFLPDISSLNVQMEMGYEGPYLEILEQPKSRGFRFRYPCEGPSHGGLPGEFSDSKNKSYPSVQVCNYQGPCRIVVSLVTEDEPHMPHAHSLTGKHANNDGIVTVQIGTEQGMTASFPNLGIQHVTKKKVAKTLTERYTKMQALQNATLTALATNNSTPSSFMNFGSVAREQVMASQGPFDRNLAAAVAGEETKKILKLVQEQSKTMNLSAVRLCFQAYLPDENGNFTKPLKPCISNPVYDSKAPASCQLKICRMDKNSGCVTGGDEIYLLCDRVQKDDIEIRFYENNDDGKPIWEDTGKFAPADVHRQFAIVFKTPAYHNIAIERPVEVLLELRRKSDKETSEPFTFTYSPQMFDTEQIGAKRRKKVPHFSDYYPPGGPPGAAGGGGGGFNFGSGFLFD

[2] = molecular target: T2, GST-Nv-NF-kB (Cys allele) (UniProt E5G601)
T2 sequence: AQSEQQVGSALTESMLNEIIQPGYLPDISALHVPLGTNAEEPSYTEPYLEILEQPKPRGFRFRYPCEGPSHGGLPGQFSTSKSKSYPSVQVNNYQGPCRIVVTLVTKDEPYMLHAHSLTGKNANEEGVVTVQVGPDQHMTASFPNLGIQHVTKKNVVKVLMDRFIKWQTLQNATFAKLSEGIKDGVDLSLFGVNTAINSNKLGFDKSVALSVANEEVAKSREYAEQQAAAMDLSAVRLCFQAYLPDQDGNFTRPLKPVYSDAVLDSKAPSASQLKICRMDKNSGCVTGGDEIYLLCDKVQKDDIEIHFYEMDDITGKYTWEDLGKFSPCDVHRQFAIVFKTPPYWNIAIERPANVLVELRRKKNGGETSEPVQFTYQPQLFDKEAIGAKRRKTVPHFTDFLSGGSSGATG

[3] = molecular target: T3, GST-Co-NF-kB (UniProt F1ARL5)
T3 sequence: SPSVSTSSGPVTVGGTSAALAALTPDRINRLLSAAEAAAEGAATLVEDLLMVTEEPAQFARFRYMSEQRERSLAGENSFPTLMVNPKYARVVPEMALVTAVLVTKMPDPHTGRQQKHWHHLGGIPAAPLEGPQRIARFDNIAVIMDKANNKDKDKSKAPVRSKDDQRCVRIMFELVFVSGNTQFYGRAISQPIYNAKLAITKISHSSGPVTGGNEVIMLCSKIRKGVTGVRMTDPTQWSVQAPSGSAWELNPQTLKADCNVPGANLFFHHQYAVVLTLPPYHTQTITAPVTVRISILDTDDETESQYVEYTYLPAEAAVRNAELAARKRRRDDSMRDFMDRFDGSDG

[4] = molecular target: T4, GST-Dm-Relish (UniProt Q94527)
T4 sequence: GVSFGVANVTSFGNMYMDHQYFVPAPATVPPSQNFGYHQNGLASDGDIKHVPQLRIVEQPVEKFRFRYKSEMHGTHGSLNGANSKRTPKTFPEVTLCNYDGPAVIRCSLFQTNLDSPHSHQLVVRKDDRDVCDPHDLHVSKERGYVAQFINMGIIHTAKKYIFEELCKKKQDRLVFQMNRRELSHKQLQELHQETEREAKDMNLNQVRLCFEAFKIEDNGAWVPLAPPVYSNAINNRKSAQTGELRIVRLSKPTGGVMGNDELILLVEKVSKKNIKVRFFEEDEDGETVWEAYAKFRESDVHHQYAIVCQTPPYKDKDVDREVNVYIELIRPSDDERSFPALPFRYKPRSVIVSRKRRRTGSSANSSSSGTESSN

[5] = molecular target: T5, GST-Aq-NF-kB (UniProt A9Y5G7)
T5 sequence: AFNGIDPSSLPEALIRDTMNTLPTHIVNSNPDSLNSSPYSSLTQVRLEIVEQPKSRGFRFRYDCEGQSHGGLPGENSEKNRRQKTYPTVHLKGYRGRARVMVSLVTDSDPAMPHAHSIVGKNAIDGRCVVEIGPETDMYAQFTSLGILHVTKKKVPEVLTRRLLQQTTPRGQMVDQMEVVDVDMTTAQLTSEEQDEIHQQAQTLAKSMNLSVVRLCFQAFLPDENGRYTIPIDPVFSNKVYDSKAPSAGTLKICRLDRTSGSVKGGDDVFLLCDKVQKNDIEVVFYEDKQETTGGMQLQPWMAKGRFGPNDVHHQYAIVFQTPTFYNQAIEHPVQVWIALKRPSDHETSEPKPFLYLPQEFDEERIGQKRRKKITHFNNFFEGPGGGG

| Sequence | binding signal [1] | binding signal [2] | binding signal [3] | binding signal [4] | binding signal [5] |
| --- | --- | --- | --- | --- | --- |
| CCGATTAACATCAGAAAATCCCCTGATGTTAATCGGGTCTTGATTCGCTTGACGCTGCTG | 10.4 z-score | 12 z-score | 4.89 z-score | 9.8 z-score | 8.95 z-score |
| CCGATTAACATCAAGGCGCTCTATGATGTTAATCGGGTCTTGATTCGCTTGACGCTGCTG | 0.0202 z-score | -0.201 z-score | -1.03 z-score | -0.721 z-score | -0.0756 z-score |
| CCGATTAACATCAATTGCTGTAATGATGTTAATCGGGTCTTGATTCGCTTGACGCTGCTG | -0.224 z-score | 0.123 z-score | 0.677 z-score | -0.574 z-score | -0.738 z-score |
| CCGATTAACATCAGGGCAGTCCATGATGTTAATCGGGTCTTGATTCGCTTGACGCTGCTG | 0.42 z-score | -0.143 z-score | -0.0464 z-score | -0.2 z-score | 1.1 z-score |
| CCGATTAACATCATTGAGACGCTTGATGTTAATCGGGTCTTGATTCGCTTGACGCTGCTG | -0.276 z-score | -0.404 z-score | -1.25 z-score | -1.12 z-score | -0.646 z-score |
| CCGATTAACATCAACCACAGATGTGATGTTAATCGGGTCTTGATTCGCTTGACGCTGCTG | -0.335 z-score | -0.299 z-score | -0.0378 z-score | 0.558 z-score | -0.239 z-score |
| CCGATTAACATCACGTGACTTATTGATGTTAATCGGGTCTTGATTCGCTTGACGCTGCTG | -0.314 z-score | -0.491 z-score | 0.0465 z-score | 0.339 z-score | -0.421 z-score |
| CCGATTAACATCAGCGTGACTTTTGATGTTAATCGGGTCTTGATTCGCTTGACGCTGCTG | -0.19 z-score | -0.326 z-score | 0.234 z-score | 1.47 z-score | -0.389 z-score |
| CCGATTAACATCAAGACCCGCTTTGATGTTAATCGGGTCTTGATTCGCTTGACGCTGCTG | 0.199 z-score | -1 z-score | -0.679 z-score | -0.319 z-score | 0.111 z-score |

Source: paper PMC5700166
